Test results taken from a collection of fitness landscapes (doi:10.1126/science.1257360).
The list shows a part of the results.

B1: PhoQ; a variant is named by its letters at X, in order, P23837 (parent)
chain: MKKLLRLFFPLSLRVRFLLATAAVVLVLSLAYGMVALIGYSVSFDKTTFRLLRGESNLFYTLAKWENNKLHVELPENIDKQSPTMTLIYDENGQLLWAQRDVPWLMKMIQPDWLKSNGFHEIEADVNDTSLLLSGDHSIQQQLQEVREDDDDAEMTHSVAVNVYPATSRMPKLTIVVVDTIPVELKSSYMVWSWFIYVLSANLLLVIPLLWVAAWWSLRPIEALAKEVRELEEHNRELLNPATTRELTSLVRNLNRLLKSERERYDKYRTTLTDLTHSLKTPLXXLQXXLRSLRSEKMSVSDAEPVMLEQISRISQQIGYYLHRASMRGGTLLSRELHPVAPLLDNLTSALNKVYQRKGVNISLDISPEISFVGEQNDFVEVMGNVLDNACKYCLEFVEISARQTDEHLYIVVEDDGPGIPLSKREVIFDRGQRVDTLRPGQGVGLAVAREITEQYEGKIVAGESMLGGARMEVIFGRQHSAPKDE

Variants of: B1
Assay: enrichment ratio after two sorts for PhoP signalling (ratio (wild type AVST 3.29)); higher = more functional
Conditions: with PhoP (E. coli)

Variant	enrichment ratio
LPDT	≤ 0.25
SEYV	5.27
PLKT	≤ 0.25
QDTM	≤ 0.25
NAMK	≤ 0.25
ERQC	≤ 0.25
GLRA	≤ 0.25
GPCS	≤ 0.25
PEYE	≤ 0.25
RDQL	≤ 0.25
QVIP	0.813
DFWN	≤ 0.25
VLMQ	≤ 0.25
DSSH	≤ 0.25
LGWT	≤ 0.25
DRMI	≤ 0.25
NFLC	≤ 0.25
WYDS	≤ 0.25
FMHV	≤ 0.25
DIPH	≤ 0.25
CFNV	≤ 0.25

Variant	enrichment ratio
WAPL	≤ 0.25
LWLY	≤ 0.25
WNHA	≤ 0.25
MHFD	≤ 0.25
EFKD	≤ 0.25
QTLI	≤ 0.25
FVWF	≤ 0.25
DSFM	≤ 0.25
FSGL	≤ 0.25
TKPR	≤ 0.25
LRKR	≤ 0.25
AYEH	≤ 0.25
GQNK	≤ 0.25
VYFA	≤ 0.25
MANR	≤ 0.25
KAGI	≤ 0.25
WQIL	≤ 0.25
WLIP	≤ 0.25
HKGI	≤ 0.25
DSMW	≤ 0.25
FYGM	≤ 0.25

Variant	enrichment ratio
QDST	≤ 0.25
WNSK	≤ 0.25
AQYA	≤ 0.25
YTAA	≤ 0.25
YLCC	0.642
ALTW	10.5
NHAI	≤ 0.25
KTEE	≤ 0.25
YSMC	2.37
TRWP	≤ 0.25
MIPN	≤ 0.25
FIYS	≤ 0.25
IDER	≤ 0.25
ENPE	≤ 0.25
NFKR	≤ 0.25
NTQK	≤ 0.25
LKDE	≤ 0.25
FDAT	≤ 0.25
NMYA	≤ 0.25
LMKM	≤ 0.25
DTMR	≤ 0.25

Variant	enrichment ratio
GLAF	4.74
KFKL	≤ 0.25
MEVW	≤ 0.25
AEFP	≤ 0.25
EVVD	≤ 0.25
RSMF	≤ 0.25
NHPN	≤ 0.25
DCEQ	≤ 0.25
MWFQ	≤ 0.25
HLEK	≤ 0.25
ARQR	≤ 0.25
RLDG	≤ 0.25
FAWF	≤ 0.25
RKGR	≤ 0.25
PDWS	≤ 0.25
LYDL	≤ 0.25
LNTH	≤ 0.25
GCKW	≤ 0.25
QTGL	10.7
KVGF	≤ 0.25
NSAG	≤ 0.25
